# Measurements reported in the supplement of paper PMC4604168 (melanoma cell lines).
# Some of the results follow. Single values are uncertain, as repeats are few or missing.
# Key:
# Experiment in all cases: cell count relative to DMSO control; melanoma cells; higher = more viable cells
# Conditions in all cases: library dose: standard library concentration; 72 h
# [1] = system: G361
# [2] = system: IPC-298
# [3] = system: IST-MEL1
# [4] = system: LB2518-MEL
# [5] = system: LOXIMVI
# [6] = system: MEL-HO
# [7] = system: MZ2-MEL
# [8] = system: MeWo
# [9] = system: RPMI7951
# [10] = system: RVH-421
# [11] = system: SkMel28
# [12] = system: SkMel2
# [13] = system: SkMel30
# [14] = system: SkMel5
# [15] = system: UACC257
# [16] = system: UACC62
# [17] = system: WM115
# [18] = system: WM1716
# [19] = system: WM3526
# [20] = system: WM1745
# 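Also: cells treated in 1,536-well plates, then fixed and DAPI-stained, with nuclei counted from automated high-throughput microscope images.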
SMILES,cell count [1] [%],cell count [2] [%],cell count [3] [%],cell count [4] [%],cell count [5] [%],cell count [6] [%],cell count [7] [%],cell count [8] [%],cell count [9] [%],cell count [10] [%],cell count [11] [%],cell count [12] [%],cell count [13] [%],cell count [14] [%],cell count [15] [%],cell count [16] [%],cell count [17] [%],cell count [18] [%],cell count [19] [%],cell count [20] [%]
"N.N.[Cl][Pt][Cl] [cisplatin] + COc1cc(N2CCC(N3CCN(C)CC3)CC2)ccc1Nc1ncc(Cl)c(Nc2ccccc2S(=O)(=O)C(C)C)n1 [NVP-TAE684] (first compound 8 µM, partner dose 0.4 µM)",87,101,109,97.3,76.6,101,122,76.1,79.8,66.3,79.4,86.7,102,67.3,73,78.1,73.3,83.1,81.8,
"C[As](C)SC[C@H](NC(=O)CC[C@H](N)C(=O)O)C(=O)NCC(=O)O [Darinaparsin] + Cn1cc(/C=C2\C(=O)Nc3cccnc32)c2ccccc21 [GW441756] (first compound 2 µM, partner dose 2 µM)",90.8,89,88.8,,91.7,90.6,,67.5,81,78,71.7,104,75.4,38.9,70.5,93.7,77.3,71.8,73,74.8
"C[C@]12O[C@H](C[C@]1(O)CO)n1c3ccccc3c3c4c(c5c6ccccc6n2c5c31)CNC4=O [Lestaurtinib] + O=C1NC(=O)/C(=C/c2ccc(-c3ccc(F)cc3O)o2)S1 [AS252424] (first compound 0.02 µM, partner dose 5 µM)",82.4,82.7,122,89.4,119,83.2,109,81.8,104,97.8,121,104,95,70.4,109,104,114,116,83.3,
"Cn1cc(C2=C(c3cn(C4CCN(Cc5ccccn5)CC4)c4ccccc34)C(=O)NC2=O)c2ccccc21 [Enzastaurin] + CCc1ccc(CCOc2ccc(CC3SC(=O)NC3=O)cc2)nc1 [pioglitazone] (first compound 4 µM, partner dose 10 µM)",89.1,94.1,69.7,86.3,90.6,81.4,100,95.5,83.2,79.4,96.9,83.9,116,94.9,90.5,84.1,112,90.1,91,
"N.N.[Cl][Pt][Cl] [cisplatin] + C=CCn1c(=O)c2cnc(Nc3ccc(N4CCN(C)CC4)cc3)nc2n1-c1cccc(C(C)(C)O)n1 [MK1775] (first compound 8 µM, partner dose 0.1 µM)",65.2,74,75.8,,59,75.8,,74.3,49.7,85.3,49.3,,76.8,41.9,64.4,57.5,47.3,71.6,76.2,51.4
"Cn1cc(C2=C(c3cn(C4CCN(Cc5ccccn5)CC4)c4ccccc34)C(=O)NC2=O)c2ccccc21 [Enzastaurin] + COc1cc2ncnc(Nc3ccc(Oc4ccccc4)cc3)c2cc1OC [SrcI1] (first compound 4 µM, partner dose 10 µM)",72.3,75.6,81.8,54.5,220,85.7,93.3,57,22.5,97,69.2,99.7,99.8,62.9,74.8,63.8,103,57.6,85,
"C[C@]12O[C@H](C[C@]1(O)CO)n1c3ccccc3c3c4c(c5c6ccccc6n2c5c31)CNC4=O [Lestaurtinib] + OCCn1cc(-c2cnc3nnn(Cc4ccc5ncccc5c4)c3n2)cn1 [PF04217903] (first compound 0.02 µM, partner dose 5 µM)",84.4,91.3,105,,98.5,88.2,,82.3,98.1,79.3,104,104,98.7,72.2,113,98.7,86.8,86.8,61.9,78.9
"N.N.[Cl][Pt][Cl] [cisplatin] + O=C(Oc1ccc([N+](=O)[O-])cc1)N1CCC(C(O)(c2ccc3c(c2)OCO3)c2ccc3c(c2)OCO3)CC1 [JZL184] (first compound 8 µM, partner dose 5 µM)",96,110,92,,88.2,90.9,,92.4,90.1,59.2,95.1,,101,98.8,93.7,51.2,85.8,80,98,
"C[As](C)SC[C@H](NC(=O)CC[C@H](N)C(=O)O)C(=O)NCC(=O)O [Darinaparsin] + Oc1cc(-c2nc(-c3ccccc3)[nH]c2-c2ccncc2)ccc1Cl [L779450] (first compound 2 µM, partner dose 1 µM)",58.5,78.7,96.8,,79.6,84.8,,76.3,78.7,73.4,29.6,32.3,92.8,59.7,92.6,51.3,55.8,57.9,43.9,64.9
"C[As](C)SC[C@H](NC(=O)CC[C@H](N)C(=O)O)C(=O)NCC(=O)O [Darinaparsin] + COc1cc(N2CCC(N3CCN(C)CC3)CC2)ccc1Nc1ncc(Cl)c(Nc2ccccc2S(=O)(=O)C(C)C)n1 [NVP-TAE684] (first compound 2 µM, partner dose 0.4 µM)",58.5,76.8,86.1,,99.9,81.4,,65,80.1,68.7,62,,102,50.5,77.2,108,64.4,58.3,71.9,57
"Cn1cc(C2=C(c3cn(C4CCN(Cc5ccccn5)CC4)c4ccccc34)C(=O)NC2=O)c2ccccc21 [Enzastaurin] + Oc1cc(-c2nc(-c3ccccc3)[nH]c2-c2ccncc2)ccc1Cl [L779450] (first compound 4 µM, partner dose 1 µM)",74,93.7,87.4,64.7,104,99.9,133,82.9,83.3,84,74.5,60.7,91,84.6,121,56.7,60,64.6,72.3,
"N.N.[Cl][Pt][Cl] [cisplatin] + NCC(=O)Nc1ccc(-n2nc(C(F)(F)F)cc2-c2ccc3c(ccc4ccccc43)c2)cc1 [OSU03012] (first compound 8 µM, partner dose 5 µM)",77.3,111,75.7,,75.6,83.7,,99.8,62,102,69.2,,62.8,71.9,72.4,86.1,76.8,83.8,56.2,121
"N.N.[Cl][Pt][Cl] [cisplatin] + CCN(CC)CCCCNc1ncc2cc(-c3cc(OC)cc(OC)c3)c(NC(=O)NC(C)(C)C)nc2n1 [PD173074] (first compound 8 µM, partner dose 0.5 µM)",82.1,104,116,,77.4,94.4,,79.1,67.7,105,58.5,,93.7,87.6,82.7,104,89.7,83.1,88.3,
"C[C@]12O[C@H](C[C@]1(O)CO)n1c3ccccc3c3c4c(c5c6ccccc6n2c5c31)CNC4=O [Lestaurtinib] + Cn1nnc2c(C(N)=O)ncn2c1=O [temozolomide] (first compound 0.02 µM, partner dose 10 µM)",91.8,69,95.7,,59.9,91.3,,73.9,93.8,97.2,29.1,86,64.1,58.3,79.8,48.7,64.1,61.8,68.1,61.3
"C[C@]12O[C@H](C[C@]1(O)CO)n1c3ccccc3c3c4c(c5c6ccccc6n2c5c31)CNC4=O [Lestaurtinib] + C[C@@H](Oc1cc(-c2cnn(C3CCNCC3)c2)cnc1N)c1c(Cl)ccc(F)c1Cl [Crizotinib] (first compound 0.02 µM, partner dose 1 µM)",82,79.7,103,,179,80.2,,72,81.9,106,64,88.5,76.6,61.1,71,73.2,54.8,101,75,71.1
"Cn1cc(C2=C(c3cn(C4CCN(Cc5ccccn5)CC4)c4ccccc34)C(=O)NC2=O)c2ccccc21 [Enzastaurin] + NC1(c2ccc(-c3nc4ccn5c(=O)[nH]nc5c4cc3-c3ccccc3)cc2)CCC1 [MK2206] (first compound 4 µM, partner dose 2 µM)",72.4,82.2,75.7,,50.5,79.3,,97.5,32.9,52.8,60.5,48.4,83.3,67.8,89.6,52.2,88.6,71.6,94.3,46.1
"C[C@]12O[C@H](C[C@]1(O)CO)n1c3ccccc3c3c4c(c5c6ccccc6n2c5c31)CNC4=O [Lestaurtinib] + COc1ccc(COc2ccc(Cc3cnc(N)nc3N)cc2OC)cc1 [GW2580] (first compound 0.02 µM, partner dose 5 µM)",84.3,84.8,122,86.4,71.9,94.9,96.2,90,111,105,76.4,106,74.7,72,88.8,83.3,108,92.7,68.9,
"Cn1cc(C2=C(c3cn(C4CCN(Cc5ccccn5)CC4)c4ccccc34)C(=O)NC2=O)c2ccccc21 [Enzastaurin] + Oc1nc(-c2ccc(C(F)(F)F)cc2)nc2c1CSCC2 [XAV939] (first compound 4 µM, partner dose 10 µM)",67.2,90.8,87.3,80.9,88.9,80.3,78.1,83.6,66,55.1,93.3,89,91.3,62,80.2,79.3,108,56.7,82.6,
